Laboratory results reported in PubChem BioAssay AID504466 (National Center for Advancing Translational Sciences (NCATS), 2011).
Screen size: about 330,000 compounds; about 4,200 (1.3%) were called active. Inconclusive means that the source gave no clear call. Such entries were picked first, then a sample of the others. Calls follow the shape of the dose curve; as a rule, active = well fitted activation curve with a large enough effect; inconclusive = small, poorly fitted or top-dose-only effect; inactive = no such curve, though single readings can be large or run the other way. Potencies of inconclusive entries are doubtful fits and often do not repeat.

assay: qHTS screen for small molecules that induce genotoxicity in human embryonic kidney (HEK293T) cells expressing luciferase-tagged ELG1; conditions: HEK293T ELG1-luciferase reporter, luminescence, 16 h; series mostly up to 46 µM; also: nearly all actives have a fitted effect of over 60% in size
How it was run: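 Screening used a luciferase reporter fused to human ELG1 in HEK293T cells. Luminescence was read on a CCD plate imager after 16 hr exposure and 30 min ONE-Glo incubation.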
Potency is read from the fitted curve at half-maximal effect; tags tell the direction and shape of the fitted curve.

| Compound | Potency |
| --- | --- |
| Cc1ccc(C(=O)NCCCc2ccccc2)c(Cl)c1 | inconclusive: 13 µM [activator, partial curve] |
| COC(=O)C1CCCCN1C(=O)CCc1nnc(CCc2c[nH]c3ccccc23)o1 (stereo not given) | inactive |
| O=C(CCc1nc2sc3c(c2c(=O)[nH]1)CCCC3)Nc1ccccc1Cl | inactive |
| Cc1cc(C2CCCCC2)n(O)c(=O)c1 | inactive |
| CCC(CC)c1nnc(NC(=O)c2ccc3c(c2)OCO3)s1 | inconclusive: 23.1 µM [activator, single point] |
| Cc1cccc(-c2noc(-c3ccc(Cl)cc3[N+](=O)[O-])n2)c1 | inconclusive: 4.11 µM [activator, full curve] |
| N=c1c2c(-c3ccccc3)c(-c3ccccc3)n(Cc3ccco3)c2ncn1CCCn1ccnc1 | inconclusive: 20.6 µM [activator, partial curve, poor fit] |
| COc1ccc(-c2cc(-c3nnc(COC(=O)C4CC4C)o3)c3ccccc3n2)cc1OC (stereo not given) | inactive |
| O=C(CSc1nnc(-c2ccc(F)cc2)o1)N1CCCCC1 | active: 20.6 µM |
| O=C(Nc1nc2ccccc2s1)c1ccc(F)cc1 | active: 2.59 µM |
| ONC(=Nc1ccc(Cl)cc1)c1ccccc1 | inactive |
| CCOC(=O)C1(Cc2ccccc2C)CCCN(C(=O)c2ccccn2)C1 (stereo not given) | inactive |
| Oc1ccc(/C=N/Nc2ccc(C(F)(F)F)cn2)cc1 | inconclusive: 9.2 µM [activator, partial curve] |
| Cn1c(N)c(C(=O)CSc2ncn[nH]2)c(=O)n(C)c1=O | inactive |
| CC(=O)Nc1ccc2nc(-c3cccn3C)[nH]c2c1 | inconclusive: 23.1 µM [activator, partial curve, poor fit] |
| C=CCN1C(=O)c2ccc(C(=O)N(CCOC)c3c(N)n(CCCC)c(=O)[nH]c3=O)cc2C1=O | inactive |
| COCc1ccc(C(=O)N(C)CC2CCCN(CCc3ccc(OC)cc3)C2)o1 (stereo not given) | inconclusive: 23.1 µM [activator, partial curve, poor fit] |
| CNC(=O)C(=O)NCCCN1CCOCC1 | inactive |
| C=CCOc1ccc(/C=C/C(C)=N\O)cc1 | inconclusive: 6.51 µM [activator, partial curve] |
| Cc1nnc(SCc2ccc3c(c2)OCO3)s1 | active: 20.6 µM |
| Oc1ccc(Cl)cc1C1=NNC(c2ccc(Cl)cc2)C1 (stereo not given) | inactive |
| Cc1cccc(C)c1OCCNC(=O)OCc1ccccc1 | inactive |
| COc1cccc(NC(=O)NCc2ccccc2F)c1 | inconclusive: 23.1 µM [activator, partial curve, poor fit] |
| CCOc1ccc2c(c1)OC(c1ccc(OC)cc1)(C(F)(F)F)NC2=O (stereo not given) | inconclusive: 25.9 µM [activator, single point] |
| Oc1ccccc1C1=Nc2nc3ccccc3n2C(c2ccccc2)C1 (stereo not given) | inconclusive: 7.94 µM [activator, partial curve, poor fit] |

| Compound | Potency |
| --- | --- |
| Cc1nnc(NC(=O)c2ccc3c(c2)OCO3)s1 | inconclusive: 16.4 µM [activator, partial curve] |
| O=C(CC(=O)c1cc(Cl)ccc1O)c1ccccc1 | inconclusive: 29.1 µM [activator, partial curve, poor fit] |
| Cn1ccc(NC(=O)c2ccc(Cl)cc2)n1 | inconclusive: 18.3 µM [activator, partial curve, poor fit] |
| COc1ccccc1NS(=O)(=O)c1cccc(NC(=O)c2cc3ccccc3oc2=O)c1 | active: 23.1 µM |
| COc1ccc(CN(C)C(=O)c2ccc(OCC(=O)Nc3cccc(C(F)(F)F)c3)c(OC)c2)c(OC)c1 | inconclusive: 4.11 µM [activator, single point] |
| COc1ccc(C(=O)Cc2cnn(-c3ccccc3)c2)c(O)c1 | active: 18.4 µM |
| CCCn1c(=O)[nH]c(=O)c2c1nc(-c1ccc(OC)c(Br)c1)n2CCOC | inconclusive: 18.3 µM [activator, single point] |
| Clc1ccc(-c2noc(CN3CCN(c4ccccc4)CC3)n2)cc1 | inactive |
| Cc1ccc(C(=O)Oc2ccc(/C=C3\C(=N)N4N=C(N5CCOCC5)SC4=NC3=O)cc2)cc1 | active: 23.1 µM |
| COc1cc(/C=N/N(C)c2ccccc2)ccc1O | active: 4.61 µM |
| O=c1c2ccccc2oc2cc(-c3ccc4cc[nH]c4c3)ccc12 | inconclusive: 11.6 µM [activator, partial curve] |
| COc1cccc(N2CCN(C(=O)CCCCCn3c(=S)[nH]c4cc5c(cc4c3=O)OCO5)CC2)c1 | inconclusive: 18.3 µM [activator, partial curve, poor fit] |
| CCOC(=O)Nc1ccc2c(COC(=O)c3ccccc3O)cc(=O)oc2c1 | inconclusive: 16.4 µM [activator, partial curve, poor fit] |
| CCCCCOC(=O)c1ccc(OC(=O)c2cncc(Br)c2)cc1 | inactive |
| CC(C)(C)NC(=S)N1CCC(C(=O)c2ccc(F)cc2)CC1 | inactive |
| CCOc1ccc2nc(SCc3ccccc3C#N)sc2c1 | inconclusive: 8.2 µM [activator, partial curve] |
| CCN/C=C(\C#N)S(=O)(=O)c1ccc(Br)cc1 | inactive |
| N#Cc1c(N)nc(N)nc1Nc1ccc(Br)cc1 | active: 9.2 µM |
| O=C(Nc1ccc(Nc2ccccc2)cc1)c1cccc(F)c1 | inconclusive: 18.3 µM [activator, single point] |
| COc1cc(OC)c(C(=O)Nc2cccnc2)cc1OC | inactive |
| Cc1ccc(C)c(COC(=O)CCN=C2NS(=O)(=O)c3ccccc32)c1 | inactive |
| Cc1noc(C)c1COc1ccc(C(=O)OC(C)C(=O)Nc2ccc(N3CCOCC3)cc2)cc1 (stereo not given) | inconclusive: 18.4 µM [activator, partial curve, poor fit] |
| COc1ccc(-c2csc3ncn(-c4ccccc4OC)c(=O)c23)cc1OC | inconclusive: 20.6 µM [activator, single point] |
| Cn1cc(C(=O)N2CCCC(Nc3ccc(F)cc3)C2)c2ccccc21 (stereo not given) | inactive |
| COc1ccc(-n2nc3c(c2NC(=O)c2ccco2)CS(=O)(=O)C3)cc1 | inconclusive: 29.1 µM [activator, single point] |
